# Measured values taken from PubChem BioAssay AID1721 (National Center for Advancing Translational Sciences (NCATS), 2009).
# About 1,100 (0.38%) of roughly 290,000 compounds were called active. The inconclusive results got no clear call from the source; some entries with a clear call stand among them for comparison. Calls come from the whole dose curve; as a rule, active = well fitted inhibition curve with a large enough effect; inconclusive = small, poorly fitted or top-dose-only effect, or another doubt; inactive = no such curve, though single readings can be large or run the other way. Potencies of inconclusive entries are doubtful fits and often do not repeat.
# Molecular target: Pyruvate kinase (Leishmania mexicana) (UniProt Q27686)
# UniProt Q27686, sequence (Q27686 whole entry, looked up): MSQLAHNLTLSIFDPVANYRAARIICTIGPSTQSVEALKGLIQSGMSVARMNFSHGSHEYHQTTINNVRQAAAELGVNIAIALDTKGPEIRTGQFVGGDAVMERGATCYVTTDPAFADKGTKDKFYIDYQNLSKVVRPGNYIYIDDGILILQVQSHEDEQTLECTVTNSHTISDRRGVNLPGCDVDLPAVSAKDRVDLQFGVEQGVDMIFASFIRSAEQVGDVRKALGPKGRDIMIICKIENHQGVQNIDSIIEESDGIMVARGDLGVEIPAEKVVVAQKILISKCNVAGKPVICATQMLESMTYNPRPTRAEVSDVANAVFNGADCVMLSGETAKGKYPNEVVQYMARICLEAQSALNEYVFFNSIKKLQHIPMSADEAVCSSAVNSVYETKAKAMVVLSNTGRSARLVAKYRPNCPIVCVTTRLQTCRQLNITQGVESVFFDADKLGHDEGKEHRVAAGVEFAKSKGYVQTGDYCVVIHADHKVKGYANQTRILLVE
# Test: qHTS Assay for Inhibitors of Leishmania Mexicana Pyruvate Kinase (LmPK)
# Settings: purified LmPK, Kinase-Glo ATP luminescence, 1 h; activity change, negative = inhibition: at 57.5 µM (top of the series) unless noted
# Outline: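 Screened at intermediate enzyme activity to detect both inhibitors and activators: LmPK at 0.1 nM, with a 0.5 nM enzyme column as activation reference. PEP 0.5 mM, ADP 0.1 mM; ATP detected by luminescence after 1 h.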
# % is set by controls: 0 for no effect and ±100 for the full control effect; potency is the fitted concentration of half-maximal effect; tags give direction and shape of the fitted curve.
Compound,Potency,"activity change, negative = inhibition"
O=C(NNc1nc(-c2ccccc2)cs1)c1ccccc1,inactive,–
C=CCn1c(-c2cnn(-c3ccccc3)c2N)n[nH]c1=S,"inconclusive: 31.6 µM [falling, single point]",–
CCOc1cc(C2C(C#N)=C(N)OC(C)=C2C(C)=O)c(Br)c(Br)c1OC(C)C (stereo not given),inactive,–
CC(=O)c1ccc2c(c1)C1C=CCC1C(c1ccncc1)N2 (stereo not given),inactive,–
CCN1c2ccccc2N(C)C1(C)c1ccccc1 (stereo not given),"inconclusive: 28.2 µM [falling, partial curve]",–
Cn1nccc1C(=O)N/N=C/c1ccccc1[N+](=O)[O-],"inconclusive: 22.4 µM [falling, partial curve]",–
CCCC(=O)Nc1cnc(NC(=O)c2cccc(F)c2)cc1C,"inconclusive: 25.1 µM [falling, partial curve]",–
Cc1c(C(=O)N2CCN(c3ccc(F)cc3)CC2)sc2nc(-c3ccccc3)cn12,inactive,–
CC1=C(C(=O)Nc2ccc(C)cn2)C(c2cnn(C)c2)C2=C(CCCC2=O)N1 (stereo not given),inactive,–
CCc1cc(-c2n[nH]c(=S)n2CC(C)C)cs1,"inconclusive: 25.1 µM [falling, single point]",–
c1ccc(-c2nnc(-c3ccccc3)nn2)cc1,"inconclusive: 15.8 µM [falling, partial curve]",–
Nc1ccc2c(c1)C/C(=C/c1ccco1)C2=O,"inconclusive: 25.1 µM [falling, single point]",–
O=C(Nc1ccc(C(=O)N2CCOCC2)cc1)c1cccs1,"inconclusive: 20 µM [falling, single point]",–
Cc1ccnc(NC(=O)Nc2cccc(F)c2)c1,"inconclusive: 15.8 µM [falling, single point]",–
FC(F)(F)c1nc2cc3nc4ccccc4[nH]c3cc2n1,"inconclusive: 28.2 µM [falling, single point]",–
Cc1ccc(OC(=O)COc2ccccc2C)c(-n2nc3ccccc3n2)c1,"inconclusive: 25.1 µM [falling, partial curve]",–
COC(=O)c1ccc(NC(=O)C(=O)c2cccn2C)cc1,"inconclusive: 14.1 µM [falling, partial curve]",–
Cc1ccc(NC(=O)c2ccco2)cc1C,"inconclusive: 28.2 µM [falling, partial curve]",–
Oc1cc2ccccc2cc1-c1n[nH]c(=S)n1Cc1ccco1,"inconclusive: 14.1 µM [falling, partial curve]",–
CC(C)(C)c1ccc(-c2n[nH]c(=S)n2C2CCCC2)cc1,active: 10 µM,–
CCOc1ccc(-c2nnc(-c3ccccc3)o2)cc1,"inconclusive: 15.8 µM [falling, partial curve]",–
Cc1c2cc(O)c(=O)cc-2oc2cc(O)c(O)cc12,"inconclusive: 35.5 µM [falling, single point]",–
Cc1ccccc1/C=C1\CCCc2ccccc2C1=O,"inconclusive: 14.1 µM [falling, partial curve]",–
O=C(Nc1scc(-c2cccs2)c1C(=O)O)c1cccs1,"inconclusive: 39.8 µM [falling, single point]",–
CCOc1ccc(-c2ccc(SC)nn2)cc1,active: 5.01 µM,–
CC(=O)Nc1ccc(/C=C2\CCc3ccccc3C2=O)cc1,inactive,–
CCN(CC)S(=O)(=O)c1ccc2oc(C(=O)N3CCCCCC3)c(C)c2c1,inactive,–

Compound,Potency,"activity change, negative = inhibition"
COc1cccc(-c2nnn(CCC(=O)O)n2)c1,"inconclusive: 35.5 µM [falling, single point]",–
COc1cc(/C=N/Nc2nn3cnnc3c3ccccc23)ccc1O,active: 7.94 µM,–
CC(=O)Oc1ccc(OC(C)=O)c(SCCCCCN2CCOCC2)c1,"inconclusive: 28.2 µM [falling, single point]",–
Cc1cc(N2CCOCC2)ccc1/C=C1/SC(=O)NC1=O,active: 15.8 µM,–
COC(=O)c1cccc(NC(=O)c2cccc(OC)c2)c1,"inconclusive: 14.1 µM [falling, partial curve]",–
S=c1[nH]nc(-c2ccc(Br)o2)n1Cc1ccccc1,"inconclusive: 39.8 µM [falling, single point]",–
c1ccc(-n2nnc3c(N4CCOCC4)ncnc32)cc1,"inconclusive: 28.2 µM [falling, partial curve]",–
Cc1nc(-c2ccc(C(=O)N3CCCC3)cc2)cs1,"inconclusive: 12.6 µM [falling, partial curve]",–
Cc1cc(/C=N\NC(=O)COc2cccc3cccnc23)c(C)n1-c1ccc(Br)cc1,inactive,–
CN(C)c1ccc(/C=c2\sc3n(c2=O)CCCN=3)cc1,"inconclusive: 25.1 µM [falling, partial curve]",–
O=C(Nc1nc2c(s1)C(=O)CCC2)c1ccccc1,"inconclusive: 8.91 µM [falling, partial curve]",–
N/C(=N\OC(=O)/C=C/c1ccccc1)c1ccccc1,active: 14.1 µM,–
O=C(COc1ccccc1)Nc1ccc(S(=O)(=O)Nc2ccccn2)cc1,inactive,–
Cc1ccc(CN2CCC(N3CC(C)OC(C)C3)CC2)cc1 (stereo not given),inactive,–
CC(C)S(=O)(=O)c1csc(C(=O)Nc2ccc(F)cc2)c1N,active: 14.1 µM,–
O=C(c1cc(-c2ccc3c(c2)OCO3)on1)N1CCOCC1,"inconclusive: 20 µM [falling, partial curve]",–
Cc1ccc(OCc2nc(-c3ccccn3)no2)c(Br)c1,active: 15.8 µM,–
c1ccc(Cn2c(-c3ccco3)nc3nc4ccccc4nc32)cc1,"inconclusive: 8.91 µM [falling, partial curve]",–
Cc1ccccc1-c1noc(-c2ccccc2F)n1,"inconclusive: 11.2 µM [falling, partial curve]",–
CCOC(=O)CSc1nc(C)c2cccc(C)c2n1,inactive,–
Cc1ccc(-c2nc3cc(C)ccc3o2)cc1,"inconclusive: 14.1 µM [falling, partial curve]",–
CCN1CCN(C(=O)CCNC(=O)Cn2cnc3ccccc3c2=O)CC1,inactive,–
CC(=O)Nc1ccc(S(=O)(=O)NNc2ccc([N+](=O)[O-])cc2)cc1,"inconclusive: 14.1 µM [falling, partial curve]",–
CCCOP(=O)(O)c1c([N+](=O)[O-])cc(C(F)(F)F)cc1[N+](=O)[O-] (tested in a mixture with another compound),inactive,–
COc1ccc(NC(=O)Nc2ccc(F)cc2F)cc1,"inconclusive: 12.6 µM [falling, partial curve]",–
N/C(=N\OC(=O)c1cccc(Cl)c1)c1ccccn1,active: 14.1 µM,–
c1ccc(-c2ccc(-c3nc(-c4ccccn4)no3)cc2)cc1,active: 14.1 µM,–

Compound,Potency,"activity change, negative = inhibition"
Cc1ccn2c(c1)nc(=S)n2C(=O)c1ccccc1,"inconclusive: 14.1 µM [falling, partial curve]",–
CCOc1ccc(-c2cc(N3C(=O)Nc4ccccc4N3O)on2)cc1,"inconclusive: 28.2 µM [falling, single point]",–
Nc1nnnn1/N=C/c1ccc(O)cc1,active: 15.8 µM,–
CCOc1ccc(CN2CCNC(=O)C2CC(=O)NCc2ccccn2)cc1 (stereo not given),inactive,–
O=C1NC(=O)/C(=C/c2ccc(-c3cccc([N+](=O)[O-])c3)o2)S1,"inconclusive: 17.8 µM [falling, partial curve]",–
Cc1ccc(-c2noc(-c3ccccc3F)n2)cc1,"inconclusive: 25.1 µM [falling, partial curve]",–
COc1ccc2oc(=O)c(-c3nc(C)cs3)cc2c1,"inconclusive: 17.8 µM [falling, partial curve]",–
S=c1[nH]nc(-c2cc(-c3ccco3)[nH]n2)n1-c1cccc2ccccc12,active: 7.94 µM,–
Cc1ccc(-c2nnc(-c3cccs3)o2)cc1,"inconclusive: 28.2 µM [falling, single point]",–
COc1ccc(-c2cc(C(=O)NCc3cccnc3)no2)cc1,inactive,–
COc1ccc(C(=O)c2nc3ccccc3n2C(C)C)cc1,inactive,–
Clc1ccc2c(c1)[C@H]1OCC[C@H]1[C@@H](c1ccco1)N2,"inconclusive: 31.6 µM [falling, partial curve]",–
Cc1cc(-c2ccccc2)c2c(n1)sc1c(O)cc(=O)[nH]c12,"inconclusive: 22.4 µM [falling, single point]",–
COc1ccc(N=Nc2n(C)c3ccccc3[n+]2C)cc1,active: 1.41 µM,–
CC(C)c1ccc(Nc2nc(CC(=O)O)cs2)cc1,inactive,–
COC(=O)c1ccccc1NC(=O)CCC(=O)N1CC(C)Oc2ccc(C)cc21 (stereo not given),inactive,–
Cc1cc2c(cc1C)CN(c1ccccc1)C2,active: 15.8 µM,–
COc1ccc(/C=N/Nc2nc(=O)[nH]nc2C)cc1OC,"inconclusive: 14.1 µM [falling, partial curve]",–
CCOc1cc(NC(=S)NCC2CCCO2)c(OCC)cc1NC(=O)c1ccc(OC)cc1 (stereo not given),inactive,–
O=C(Nc1ncc(Cl)cn1)c1cccs1,"inconclusive: 28.2 µM [falling, single point]",–
O=C(Nc1sc2c(c1C(=O)O)CCC2)c1cccs1,"inconclusive: 25.1 µM [falling, single point]",–
O=C(c1ccccc1)c1cc(-c2ccccc2)on1,"inconclusive: 10 µM [falling, partial curve]",–
CCCOc1ccc(C2C(C(=O)/C=C/c3ccco3)=C(O)C(=O)N2CCN2CCOCC2)cc1OC (stereo not given),–,inactive: -0.828% [at 11.5 µM]
NC(=S)c1cc2ccc(O)cc2oc1=O,"inconclusive: 22.4 µM [falling, partial curve]",–
Cc1[nH]c(C)c(S(=O)(=O)Nc2cccc(Cl)c2C)c1C(=O)N1CCCCC1,inactive,–
COc1ccc2oc(C(=O)NCCN3CCOCC3)c(C)c2c1OC,"inconclusive: 20 µM [falling, partial curve]",–
